The supplement of paper PMC3334620
The full ranking holds about 33,000 sequences; the median of “E-score (-0.5 to 0.5)” is about -0.017, and the highest 2% start at about 0.3. The list shows a part of the results.

target: T1, Sut1 (UniProt P53032); assay: PBM E-score (8-mer binding enrichment) (E-score (-0.5 to 0.5)); higher = stronger / more preferred TF binding; most listed sequences are background and not binding sites; conditions: protein concentration: 200 nM; construct: GST-full length
T1 sequence: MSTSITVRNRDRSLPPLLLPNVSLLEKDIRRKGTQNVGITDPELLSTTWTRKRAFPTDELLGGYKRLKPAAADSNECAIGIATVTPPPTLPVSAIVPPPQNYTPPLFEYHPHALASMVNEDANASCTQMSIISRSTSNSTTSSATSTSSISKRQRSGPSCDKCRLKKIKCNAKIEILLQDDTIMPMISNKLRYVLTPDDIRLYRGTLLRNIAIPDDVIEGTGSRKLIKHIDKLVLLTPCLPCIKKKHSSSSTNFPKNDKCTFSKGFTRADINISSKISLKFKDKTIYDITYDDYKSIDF
How it was run: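 Yeast transcription factors, full-length or as DNA-binding domains, were expressed with a GST tag using PURExpress in vitro transcription/translation. At about 100-200 nM they were applied to universal all-10-mer Agilent arrays, double-stranded by primer extension on fresh or once-stripped slides. Fluorescent anti-GST detected bound protein, and masliner normalised the scans. E-scores for ungapped eight-base words, pooled with reverse complements, came from the Universal PBM Analysis Suite.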

Sequence | PBM E-score
AGGTAAAC | 0.209
AGCTCTAT | 0.0252
CATATCCG | 0.102
GAATCCAC | 0.0244
CGTGCAAG | 0.0139
AGCACCCG | -0.169
GCGGCTCC | -0.0849
CGCTTAGC | -0.004
ACGAATAT | 0.195
CCGTGGCA | 0.0302
CTTAATTC | 0.161
GGATCACC | -0.0362
GACAGCGA | 0.0726
GGAATCCC | -0.0983
ACCTATTG | 0.0851
GTACGACA | -0.0144
ATCACCCA | -0.012
GGTTATTA | 0.141
ACGCATTC | 0.0238
CACAGATA | -0.182
CAGTCTGC | -0.194
GGGGCTTA | -0.287
AGGGACAC | 0.0534
ACTTCACG | -0.152
ACTTTAGA | 0.178

Sequence | PBM E-score
AGCGACGC | -0.123
AAACACCG | 0.201
ACGATAGC | -0.122
GTGCGGAA | 0.0942
GATTCAAC | 0.132
ATGACCAC | -0.135
GGACCATA | -0.0784
AATTCCGC | 0.192
AAAAGCAT | 0.149
ACTACTGG | -0.146
ATCGAGGG | -0.1
CGCAACCC | 0.023
CTGTCAGC | -0.0355
GCCAGTAC | -0.107
CTTAAACA | 0.171
CTAGGGGC | -0.309
CTAGACTA | -0.00238
GACTGGAC | -0.212
GAGGTAGA | -0.165
ATGCCGCG | -0.00984
CTTTAGTC | 0.11
CGAATGCC | -0.147
CCTCATCG | -0.156
AATGCACA | 0.108
CATCGGAA | 0.269

Sequence | PBM E-score
AGCTAATA | -0.0778
ATAACCGC | -0.00795
ATCAGGCG | -0.068
AACCCTTG | -0.175
CGTTTAGC | 0.0573
ATTAGCGG | -0.0289
AAATTGAG | 0.174
GTGGAAAC | 0.132
ACAGGTCT | -0.109
CATAAACA | 0.23
CTAGGTTA | 0.165
GAGTACAC | -0.149
AAGTGGTG | -0.0118
CAGCCAAA | 0.142
CGCTTTCC | -0.016
AACCTGCG | -0.0921
TAACGGCA | 0.00495
ACACTCAC | 0.111
ACTCATGC | -0.0834
ACTCTTAA | 0.005
CCGAGTCG | -0.0127
CCCACTAC | -0.119
ATAGACTA | 0.0154
ATCCAAGC | -0.0483
AAGCAAGT | 0.109

Sequence | PBM E-score
CATCTACA | 0.174
CCACGTGC | -0.185
GACTGGCC | -0.114
AAGACTAC | 0.0293
GCATCAAA | 0.14
AGATCCTA | -0.199
GGCGGCTA | -0.0541
CCTCGCCA | -0.267
AGACGCAC | 0.0364
CCACGTGG | -0.454
TTCGAGAA | 0.0303
ACCCACGC | -0.106
CACCTTGA | -0.262
CCGTAAGC | 0.0479
ACAAATCC | 0.143
AACACGGG | -0.148
GGGTCATA | -0.152
GTGGTCGA | -0.234
CCGGCGGA | 0.153
CATCAGAG | -0.109
GCTTGAAC | 0.106
CCGGACCG | 0.191
TACAAAGA | 0.149
ACCGATAG | -0.133
AGCAATCC | 0.00583

Sequence | PBM E-score
GGGACACC | -0.231
ACGTTGTA | 0.0407
CAAGTGCC | -0.239
ACGGTGCA | -0.124
ACTGGGCG | -0.121
CTCGGGAC | -0.0744
TACTGTGA | 0.0644
AACTGAAG | -0.00359
AGACAGTC | -0.153
GCAATGGC | -0.165
TCAAGGCA | -0.158
CCTCGGAG | 0.446
AGCCAGAA | -0.143
CAGGATAA | 0.0352
AGGTCCAA | -0.256
AACGGATT | 0.211
CAATATTC | 0.0259
CTCATTTA | 0.0854
ATGCGGGG | -0.183
CCAGGAAC | -0.254
CTGATTTC | 0.0415
CAGGGCCA | -0.316
ACGATCCT | -0.0718
AACGCTAT | -0.00198
CTCAGCCA | -0.0785

Sequence | PBM E-score
CACACCCG | -0.212
GCCAAAAC | -0.0126
TAATAAAA | 0.332
CGAATGCG | 0.2
AAGAGGGC | -0.26
ACTGTCCC | -0.012
TAGTCGCA | -0.0489
CAAATTAG | 0.108
AAATGTTA | 0.124
AAGGATGG | -0.0959
ATCGACCC | 0.0935
GGCTGTAC | -0.0774
GGGCTGCA | -0.105
GGTAATGA | 0.116
AGGTCAAC | -0.0466
GCTAGAAC | -0.0659
ATCGTCGA | -0.145
CCTGGCCA | -0.201
GATGCGGA | 0.0544
CGTCCGCC | -0.124
ATAATACC | 0.267
GTCTCTCA | -0.0341
CCAGATCA | 0.0529
GGGTGCAC | -0.149
CCTGGAAC | -0.105

Sequence | PBM E-score
GCACAACA | -0.0706
TCGCTCCA | -0.123
AAGCTATG | -0.0822
GGTCGCTA | -0.175
AGGACGCA | -0.167
CCCCGCGG | 0.0405
ACCACTGC | -0.216
AAGAGCAG | -0.289
GATCGTCA | 0.0615
GGTTTATA | 0.0479
ACTCGGAT | 0.0613
GACTTCAA | 0.00724
CGCACGAA | 0.0895
AGCCCGAA | 0.0246
CAAGTCGA | -0.109
AGAGAACT | 0.0621
CCGGTGTC | 0.106
ACAGCGTG | -0.171
ACTTGGTG | -0.17
CACGTGAC | -0.209
CAATTAGA | 0.149
GCTTTTGA | -0.0693
